In patent publication US20080267971A1 (published 2008):
Numbering of substitutions follows the chain as printed.

What was measured:
[1] = molecular target: T1, human Angiopoietin-2 (human, UniProt O15123 19-496); assay: competition ELISA: biotin-Ang-2 on coated Tie2/Fc
T1 construct: Mostly bought recombinant protein (R&D Systems 623-AM/CF, 623-AN; biotinylated BT623) or supernatant of transfected 293F cells; also called Ang-2; rhAng-2
T1 sequence: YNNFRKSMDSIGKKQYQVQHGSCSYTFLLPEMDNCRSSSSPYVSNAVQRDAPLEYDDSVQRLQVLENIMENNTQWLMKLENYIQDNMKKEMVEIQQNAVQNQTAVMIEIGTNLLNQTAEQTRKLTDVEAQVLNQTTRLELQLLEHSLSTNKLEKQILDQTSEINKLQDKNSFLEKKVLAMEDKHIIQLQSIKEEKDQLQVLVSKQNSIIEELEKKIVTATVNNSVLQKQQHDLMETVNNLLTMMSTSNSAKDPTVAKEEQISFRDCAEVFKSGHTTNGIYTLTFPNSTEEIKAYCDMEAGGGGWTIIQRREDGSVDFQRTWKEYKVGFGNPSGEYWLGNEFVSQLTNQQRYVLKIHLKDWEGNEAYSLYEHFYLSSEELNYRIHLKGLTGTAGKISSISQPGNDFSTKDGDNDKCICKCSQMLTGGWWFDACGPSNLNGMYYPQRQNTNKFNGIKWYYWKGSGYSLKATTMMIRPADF
Protocol: 96-well Nunc Immplates™ were coated with 100 μl of recombinant human Tie2/Fc fusion protein (R&D Systems, Inc., Cat. No. 313-TI-100) at 4 μg/ml by incubating overnight at 4° C. The plates were washed four times using Phosphate Buffer Saline (PBS) with a Skan™ Washer 300 station (SKATRON). The wells were blocked by 100 μl of ABX-blocking buffer (0.5% BSA, 0.1% Tween, 0.01% Thimerosal in PBS) for 1 hour.
The plates were incubated at room temperature for two hours before the unbound molecules were washed off. […] After washing twice, the bound Streptavidin was detected by HRP substrate (R&D Systems, Cat. No. DY998). The plates were incubated for 30 minutes before 450 stop solution (100 μl/well, BioFX, Cat# BSTP-0100-01) was added to terminate the reaction. The light absorbance at 450 nm was determined by a Spectramax Plus reader.
Each concentration of the mAb was tested in duplicate. The concentration-response relationship was found by curve fitting using Graphpad Prism™ graphic software (non-linear, Sigmoid curve). The maximal inhibition (efficacy) and IC₅₀ (potency) were calculated by the software.

[2] = molecular target: T1, human Angiopoietin-2; assay: Biacore, mAb captured
Protocol: The label-free surface plasmon resonance (SPR), or Biacore, was utilized to measure the antibody affinity to the antigen. For this purpose, a high-density goat anti-human antibody surface over a CM5 Biacore chip was prepared using routine amine coupling. All the purified mAbs were diluted to approximately 8 μg/ml in HBS-P running buffer containing 100 μg/ml BSA and 10 mg/mL carboxymethyldextran. Each mAb was captured on a separate surface using a 42-second contact time, and a 5-minute wash for stabilization of the mAb baseline.
Data were fit globally to a 1:1 interaction model to determine the binding kinetics.

[3] = molecular target: T1, human Angiopoietin-2; assay: inhibition of rhAng-2 binding to its receptor
[4] = molecular target: T2, human Ang-2 V345M (human, UniProt O15123 19-496); assay: ELISA
T2 sequence: T1 sequence with V326M

[5] = molecular target: T3, human Ang-2 H375Q (human, UniProt O15123 19-496); assay: ELISA
T3 sequence: T1 sequence with H356Q

[6] = molecular target: T4, human Ang-2443 (human, UniProt O15123 19-496); assay: ELISA
T4 construct: Splice variant missing amino acids 96-148; supernatant of transfected 293F cells
T4 sequence: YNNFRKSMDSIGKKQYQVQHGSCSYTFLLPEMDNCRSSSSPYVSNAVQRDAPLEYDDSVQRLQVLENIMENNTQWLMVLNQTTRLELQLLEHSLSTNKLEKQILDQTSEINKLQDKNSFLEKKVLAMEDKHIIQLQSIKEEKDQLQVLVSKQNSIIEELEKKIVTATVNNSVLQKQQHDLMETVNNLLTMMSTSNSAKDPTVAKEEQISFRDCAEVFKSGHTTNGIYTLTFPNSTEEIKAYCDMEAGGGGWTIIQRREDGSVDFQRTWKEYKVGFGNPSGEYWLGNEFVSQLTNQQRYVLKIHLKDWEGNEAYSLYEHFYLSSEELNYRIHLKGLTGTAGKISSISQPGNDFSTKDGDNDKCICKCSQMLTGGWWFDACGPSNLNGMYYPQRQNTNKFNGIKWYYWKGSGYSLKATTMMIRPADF

[7] = molecular target: T5, Human Ang-1/2 BsmI chimeric molecule (human); assay: ELISA
T5 chain: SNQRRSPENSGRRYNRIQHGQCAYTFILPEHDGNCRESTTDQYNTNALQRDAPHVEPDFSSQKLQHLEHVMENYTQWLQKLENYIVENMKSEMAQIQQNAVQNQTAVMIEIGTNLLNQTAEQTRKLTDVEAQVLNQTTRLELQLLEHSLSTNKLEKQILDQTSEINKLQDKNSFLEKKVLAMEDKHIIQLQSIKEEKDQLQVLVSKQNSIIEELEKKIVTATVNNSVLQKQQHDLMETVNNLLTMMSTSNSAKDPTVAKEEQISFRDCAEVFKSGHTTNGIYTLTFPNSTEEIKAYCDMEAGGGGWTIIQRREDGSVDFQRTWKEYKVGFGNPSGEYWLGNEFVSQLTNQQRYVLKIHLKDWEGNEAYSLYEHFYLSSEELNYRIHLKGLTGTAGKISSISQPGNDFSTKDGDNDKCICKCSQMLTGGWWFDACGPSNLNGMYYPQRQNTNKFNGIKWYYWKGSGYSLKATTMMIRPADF

[8] = molecular target: T6, Mouse/Human chimeric Ang-2 with the human StuI-TfiI fragment (mouse/human chimera, UniProt O35608 19-496); assay: ELISA
T6 construct: also called Stu-Tfil 310-400
T6 chain: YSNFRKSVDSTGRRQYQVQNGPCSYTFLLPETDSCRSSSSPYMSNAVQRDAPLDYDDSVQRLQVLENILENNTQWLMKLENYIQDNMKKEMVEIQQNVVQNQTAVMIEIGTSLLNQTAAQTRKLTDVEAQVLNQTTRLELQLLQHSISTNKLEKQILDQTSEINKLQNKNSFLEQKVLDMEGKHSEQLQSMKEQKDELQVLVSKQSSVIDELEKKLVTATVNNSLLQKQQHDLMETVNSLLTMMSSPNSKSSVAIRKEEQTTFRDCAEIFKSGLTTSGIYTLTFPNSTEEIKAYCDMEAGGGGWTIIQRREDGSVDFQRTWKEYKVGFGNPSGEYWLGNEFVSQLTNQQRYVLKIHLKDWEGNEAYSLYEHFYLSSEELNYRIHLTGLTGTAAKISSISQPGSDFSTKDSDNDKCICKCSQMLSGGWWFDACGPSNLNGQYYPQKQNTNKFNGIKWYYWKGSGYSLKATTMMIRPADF

[9] = molecular target: T7, Mouse/Human Ang-2 StuI chimeric molecule (mouse; human, UniProt O35608 19-496); assay: ELISA
T7 construct: also called M/H Stul 310-496
T7 chain: T6 chain with T386K, A393G, S403N, S410G, S424T, Q440M, K445R

B1: mAb 5.78.3 (antibody, V domains shown)
VH: not shown
VL: DIVMTQSPDSLAVSLGERATINCKSSQSVLYSSNNQNFLAWYQQKPGQPPKLLIYWASTRESGVPDRFSGSGSGTDFTLTISSLQAEDVAVYYCHQYYSTPITFGQGTRLEIKR
notes: Human hybridoma IgG (XenoMouse); the line 5.78 has entries of its own (425, 427); also called 5.78.1; x5.78
EC50 [1]: 5.97 µg/mL
Efficacy (ratio of bound Ang-2 with mAb 30 µg/ml versus without) [1]: 0.262 ratio
kon [2]: 240000 M⁻¹ s⁻¹
OD650 in inhibition assay [3]: 0.0984 OD650
% of binding to human Ang-2 [4]: 100%
% of binding to human Ang-2 [5]: 100%
% of binding to human Ang-2 [6]: 100%
% of binding to human Ang-2 [7]: 100%
% of binding to human Ang-2 [8]: 100%
% of binding to human Ang-2 [9]: 100%
